Assay results reported in PubChem BioAssay (NCATS).
“And” between values parts separate entries of the source, which are not always exact repeats. Equal entries are not always repeated. The shares of active, inactive and inconclusive entries below differ from those in the screen. For some of these results: A potency beside an inconclusive call is a rough fit, not a confirmed value. The source made the active and inactive calls. Unless noted, calls come from the whole dose curve; as a rule, active = well fitted curve in the direction sought with a large enough effect; inconclusive = small, poorly fitted or top-dose-only effect, or another doubt; inactive = no such curve, though single readings can be large; an effect the other way counts as inactive or inconclusive.

Tests used:
[1] = qHTS of pediatric cancer cell lines to identify multiple opportunities for drug repurposing: Primary screen for NB-EBc1 cells (AID 1347095); note: potency is the fitted concentration of half-maximal effect;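 for activity change, negative = cytotoxic: plate controls were DMSO neutral control for no effect and bortezomib for full effect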
Method in brief: (§1)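 CRCs from 8- or 11-point titrations (lowest final 0.59 nM NPC, 0.78 nM MIPE). Cell viability: CellTiter-Glo after 48 h incubation, 15 min room-temperature development, luminescence imaging.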

[2] = qHTS of pediatric cancer cell lines to identify multiple opportunities for drug repurposing: Primary screen for Saos-2 cells (AID 1347097); conditions: Saos-2 viability, CellTiter-Glo ATP luminescence, 48 h; activity change, negative = cytotoxic: at 46 µM (top of the series); note: nearly all actives have a fitted effect of over 40% in size; note: potency is the fitted concentration of half-maximal effect; for activity change, negative = cytotoxic: % is set by controls: 0 for no effect and ±100 for the full control effect
Method in brief: as §1

[3] = qHTS of pediatric cancer cell lines to identify multiple opportunities for drug repurposing: Primary screen for SK-N-SH cells (AID 1347098); conditions: SK-N-SH viability, CellTiter-Glo luminescence, 48 h; activity change, negative = cytotoxic: at 57 µM (top of the series); note: nearly all actives have a fitted effect of over 65% in size; note: potency is the fitted concentration of half-maximal effect;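 for activity change, negative = cytotoxic: DMSO served as neutral control and bortezomib at 2.3 µM as positive control; % is set by controls: 0 for no effect and ±100 for the full control effect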
Method in brief: (§2)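 Cells (500-1,000/well) rested 5 h, then received compounds for 48 h; metabolically active cells were measured by CellTiter-Glo luminescence. Final concentrations spanned up to 46 µM (MIPE, 11-point) or 0.59 nM-46 µM (NPC, 8-point) in primary screens, 11-point in follow-ups.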

[4] = A High-Content qHTS Against Drug Library for the Identification of Small Molecules that Inhibit DYT1 Early Onset Primary Dystonia-Associated Cell Pathology (AID 1645839; calls by dose curve; note: potency is the fitted concentration of half-maximal effect)
Method in brief: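 Readout: %pathology, the punctate EGFP-TorsinA distribution from imaging, as the primary channel and cell count as the toxicity counterscreen. HEK293 Flp-In cells expressing delE TorsinA were induced with tetracycline and treated with compound for 48 h.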

[5] = Primary qHTS for inhibitors of nuclear receptor binding SET domain protein 2 (NSD2) in an RCH-ACV wild type WT cells (2C) (AID 1645877); conditions: activity change, negative = cell killing: at 44.9 µM (top of the series); note: nearly all actives have a fitted effect of over 70% in size; note: potency is the fitted concentration of half-maximal effect; for activity change, negative = cell killing: % is set by controls: 0 for no effect and ±100 for the full control effect
[6] = test system: HEK293; test: Cytotoxic Profiling of Annotated Libraries Using Quantitative High-Throughput Screening (AID 1296008); conditions: Five cell lines viability, CellTiter-Glo ATP luminescence, 48-72 h; max response: hits give low values; note: nearly all actives have a fitted effect of over 60% in size; note: potency is the fitted concentration of half-maximal effect
Method in brief: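 Compounds were pin-transferred onto cells and incubated 48 or 72 hr at 37 degree Celsius, 95% humidity. CellTiter-Glo was added, plates sat 10 min at room temperature, then ATP-coupled luminescence was imaged as the viability read-out.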

[7] = test system: MKL-2; test: qHTS assay to identify novel small-molecules to repurpose for Merkel cell carcinoma treatment (AID 1296009); conditions: MCC and control cell lines, CellTiter-Glo viability, 72 h; activity change, negative = cytotoxicity: at 46 µM (top of the series); note: nearly all actives have a fitted effect of over 60% in size; note: potency is the fitted concentration of half-maximal effect; for activity change, negative = cytotoxicity: % is set by controls: 0 for no effect and ±100 for the full control effect
Method in brief: (§3)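 Cells exposed to NPC (8-point) and MIPE (11-point) compound dilutions for 72 hr at 37 degree celsius; viability read by CellTiter-Glo luminescence, normalized to no-cell and DMSO in-plate controls.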

[8] = test system: WaGa; test: as above; conditions: MCC and control cell lines, CellTiter-Glo viability, 72 h; series mostly up to 46 µM
Method in brief: as §3

[9] = P-glycoprotein substrates identified in KB-8-5-11 adenocarcinoma cell line, qHTS therapeutic library screen (AID 1346987); note: nearly all actives have a fitted effect of over 65% in size; note: potency is the fitted concentration of half-maximal effect
Method in brief: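 KB-8-5-11: colchicine-selected sub-line of KB-3-1 over-expressing P-gp; assay medium lacked colchicine. 72 h drug exposure at 37 degree C, CellTiter-Glo.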

[10] = test system: SKOV3; test: Primary qHTS to identify gynecologic anti-cancer compounds using libraries of approved drugs and bioactive compounds (AID 1345084); conditions: Gynecologic cancer cell panel viability, ATPlite luminescence, 48 h; series mostly up to 57.5 µM; note: nearly all actives have a fitted effect of over 55% in size; note: potency is the fitted concentration of half-maximal effect
Method in brief: (§4)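 Luminescence from the ATPlite ATP-monitoring reagent indicates viable cell number; lower signal means cytotoxicity. Cells received compound 16 h after seeding and were exposed for 48 h across five concentrations.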

[11] = qHTS of pediatric cancer cell lines to identify multiple opportunities for drug repurposing: Primary screen for OHS-50 cells (AID 1347103); note: nearly all actives have a fitted effect of over 40% in size; note: potency is the fitted concentration of half-maximal effect;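 for activity change, negative = cytotoxic: plate controls were DMSO neutral control for no effect and bortezomib positive control for full effect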
Method in brief: as §2

[12] = Primary qHTS for small molecule stabilizers of the endoplasmic reticulum resident proteome: Secreted ER Calcium Modulated Protein (SERCaMP) assay (AID 1508630); conditions: SH-SY5Y GLuc-SERCaMP (Gaussia luciferase released on ER calcium loss) secretion, thapsigargin, luminescence; activity change, negative = inhibition: at 38.4 µM (top of the series); note: potency is the fitted concentration of half-maximal effect
Method in brief: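 GLuc-SERCaMP-expressing SH-SY5Y cells, pretreated 16 h with compound, are challenged with thapsigargin to empty ER calcium stores; after 4 h, coelenterazine is added directly to the medium and luminescence is imaged.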

[13] = Primary qHTS for inhibitors of nuclear receptor binding SET domain protein 2 (NSD2) in an isogenic RCH-ACV NSD2 p.E1099K mutant (9B) (AID 1645876); note: nearly all actives have a fitted effect of over 70% in size; note: potency is the fitted concentration of half-maximal effect
[14] = Drug repurposing screens with cells derived from glioblastoma tumor samples (AID 1345199); conditions: GBM patient neurospheres viability, ATP luminescence, 48 h; Potency: tumour line A unless noted; activity, negative = cell killing: at 46 µM (top of the series), tumour line A unless noted; note: nearly all actives have a fitted effect of over 40% in size; note: potency is the fitted concentration of half-maximal effect
Method in brief: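 Four patient lines of CD133+ GBM neurospheres were screened at several concentrations; hits were retested in those lines plus three slower-growing GBM lines, using 48-hour treatment and ATP-based viability.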

[15] = qHTS of pediatric cancer cell lines to identify multiple opportunities for drug repurposing: Primary screen for BT-12 cells (AID 1347101); note: potency is the fitted concentration of half-maximal effect; nearly all actives have a fitted effect of over 25% in size
Method in brief: as §2

[16] = test system: OV90; test: Primary qHTS to identify gynecologic anti-cancer compounds using libraries of approved drugs and bioactive compounds (AID 1345084); conditions: Gynecologic cancer cell panel viability, ATPlite luminescence, 48 h; series mostly up to 57.5 µM; note: nearly all actives have a fitted effect of over 55% in size; note: potency is the fitted concentration of half-maximal effect
Method in brief: as §4

[17] = qHTS of pediatric cancer cell lines to identify multiple opportunities for drug repurposing: Primary screen for SK-N-MC cells (AID 1347093); conditions: SK-N-MC viability, CellTiter-Glo luminescence, 48 h; activity change, negative = cytotoxic: at 46 µM (top of the series);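 note: plate controls were DMSO neutral control for no effect and bortezomib for full effect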
Method in brief: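 Metabolically active cells were quantified by ATP-dependent luminescence (CellTiter-Glo, 15 min at room temperature) following 48 h treatment. Cells had been plated at 500-1,000 per well and settled for 5 h beforehand.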
Tags give direction and shape of the fitted curve.

CCc1cc2cc(OC)c(OC)cc2c(Cc2ccccc2)n1
inconclusive: Potency [1] 37.6 µM [cytotoxic, partial curve, poor fit] | Potency [3] 30.7 µM [cytotoxic, single point] | Potency [5] 21.1 µM [inhibitor, single point] | Potency [6] 33.5 µM [inhibitor, single point] | Potency [7] 18.8 µM [inhibitor, single point]
inactive: Potency [2] | Potency [4] | Potency [8]

CCOC(=O)c1ccc(NC(=O)CN2CCCCC2)cc1
inconclusive: Potency [9] 23.1 µM [inhibitor, single point] | Potency [6] 20.6 µM [inhibitor, single point] | Potency [10] 8.91 µM [rising, single point]
inactive: Potency [1] | Potency [3] | Potency [5] | Potency [7] | Potency [8]

CCC(C)(CN(C)C)OC(=O)c1ccccc1 (centres undefined)
inactive: Potency [11] | Potency [4] | Potency [13] | outcome [6] | Potency [10]
inconclusive: Potency [2] 33.5 µM [cytotoxic, single point] | Potency [12] 11.2 µM [inhibitor, partial curve, poor fit] | Potency [5] 29.9 µM [inhibitor, single point] | Potency [14] 8.91 µM [inhibitor, partial curve]

CN1CCCC(CC2c3ccccc3Sc3ccccc32)C1 (centres undefined)
active: Potency [15] 19.5 µM | Potency [11] 24.6 µM | Potency [7] 23.7 µM
inconclusive: Potency [9] 7.85 µM [inhibitor, single point] | Potency [2] 15 µM [cytotoxic, partial curve] | Potency [3] 38.6 µM [cytotoxic, single point] | Potency [12] 10 µM [inhibitor, partial curve, poor fit] | Potency [4] 11.2 µM [inhibitor, partial curve, poor fit] | Potency [13] 29.9 µM [inhibitor, single point] | Potency [6] 33.5 µM [inhibitor, single point] | Potency [8] 21.1 µM [inhibitor, single point] | Potency [16] 31.6 µM [cytotoxic, single point] | Potency [10] 25.1 µM [cytotoxic, single point]

CC(C)[N+](C)(CCOC(=O)C1c2ccccc2Oc2ccccc21)C(C)C
inconclusive: Potency [15] 38.9 µM [cytotoxic, single point] | Potency [12] 28.2 µM [inhibitor, single point] and 35.5 µM [inhibitor, partial curve, poor fit] | Potency [7] 33.5 µM [inhibitor, single point] | Potency [8] 33.5 µM [inhibitor, single point]
inactive: Potency [17] | Potency [11] | Potency [4] | Potency [13] | Potency [5] | max response [6] -1.62% | Potency [14]

NC(=O)NS(=O)(=O)c1ccc(N)cc1
inconclusive: Potency [12] 10 µM [inhibitor, partial curve, poor fit] | Potency [13] 33.5 µM [inhibitor, single point] | Potency [5] 33.5 µM [inhibitor, single point]
inactive: Potency [17] | Potency [3] | max response [6] -4.98% | Potency [14]

O=C(Nc1cccc(C2=NCCN2)c1)Nc1cccc(C2=NCCN2)c1
inconclusive: Potency [15] 1.35 µM [cytotoxic, full curve] | Potency [5] 14.6 µM [inhibitor, single point] | Potency [6] 14.6 µM [inhibitor, single point] | Potency [10] 20 µM [cytotoxic, single point]
inactive: Potency [9] | Potency [7] | Potency [8] | Potency [14]
